Data taken from ChEMBL document CHEMBL4888484, “Replenishing the malaria drug discovery pipeline: Screening and hit evaluation of the MMV Hit Generation Library 1 (HGL1) against asexual blood stage Plasmodium falciparum ,using a nano luciferase reporter read-out” (2022).
Screen size: about 150,000 compounds; about 540 (0.36%) showed an effect of 50% or more. The list shows a part of the results.

system: Plasmodium falciparum; assay: Primary screen in NF54 nanoGlo assay, in single point, at 2uM, 72h; a lower Z score goes with more inhibition; assay type: functional, Erythrocyte; settings: timepoint 72 hour

Structure (SMILES)	% Inhibition [%]	Z score
C[C@H](Nc1ccc2nc(C(F)F)sc2c1)c1nc(C2CC2)no1	-14	2.22
CN1CCOC[C@H]1C(=O)NC(C)(C)c1cc(C(F)(F)F)on1	-6	0.84
Cc1nnc(-c2ccccc2C(=O)NC2CCC(N3CCC(C)CC3)CC2)o1 (stereo not given)	-13	1.35
COc1cccc(C(=O)NCCN(C2CCOCC2)[C@H]2CCN(S(C)(=O)=O)C2)c1C	-2	0.47
C=CCS(=O)(=O)NC(=O)[C@H](CC)c1ccccc1	-10	1.15
CC1=C[C@@H](CNS(C)(=O)=O)[C@H](C(C)C)C[C@H]1Cc1nc2ccc(F)cc2[nH]1	10	-1.22
CCCn1cnnc1CN(C)CCn1ccc(C)n1	-17	2.91
CC1(C(=O)O)CCN(Cc2ccc3c(c2)CCC3)CC1	2	-0.44
COCc1nc(C)c(C(=O)N(C)[C@@H]2CCC[C@H]2O)s1	-9	1.82
COc1cc(-c2cccc(C(=O)N[C@@H](C)C(F)(F)F)c2)nc(N)n1	9	-1.18
CCN1C(=O)c2cccc3c(NC(=O)c4ccc(S(=O)(=O)N5CC(C)CC(C)C5)cc4)ccc1c23 (stereo not given)	0	0.07
O=C(Cc1ccccc1F)Nc1cc(S(=O)(=O)N2CCOCC2)ccc1N1CCOCC1	-8	1.18
O=C(Nc1cccnc1)[C@H]1CCCN(c2nnc3ccc(C(F)(F)F)cn23)C1	-11	1.24
Cc1cc(Br)c2c(c1)C(O)(N1CCCC(C)C1)C(=O)N2 (stereo not given)	33	-0.79
CC(C)Cc1ccc(CN2CCc3[nH]cnc3[C@H]2c2ccccn2)s1	-12	1.81
COc1ccc(C(C)NCCC(C)O)c(Br)c1 (stereo not given)	5	-0.74
CCc1cnc(CN(C)C(=O)c2nnc(C(C)C)s2)s1	4	-0.38
CCC(COc1ccccc1)NC(=O)C1(F)CCNC1 (stereo not given)	1	-0.11
C[C@H](NCC1CCC1)C(=O)Nc1ccccc1	-9	1.1
Cc1nc(CNC(=O)c2cccc(-c3noc(C4CC4)n3)c2)oc1C	29	-2.91
CCCCCN(CCO)C(=O)COc1ccc(OCC)cc1	2	-0.23
CCc1nc2c(s1)[C@@H](NCCN1C(=O)CNC1=O)CCC2	15	-1.75

Structure (SMILES)	% Inhibition [%]	Z score
CCN(CC)C(=O)CN1CCCN(C(=O)c2ccc(Cl)cn2)CC1	-4	0.49
CN1CCC(N(CCc2ccccc2)C(=O)c2ccc3c(c2)OCO3)CC1	16	-2.02
Cc1ccc(C)c(OCc2cc(=O)n3cccc(C)c3n2)c1	2	-0.34
CC(C)(C)c1cc(NS(=O)(=O)c2coc3ccccc23)on1	-7	1.04
COc1cc(C(=O)NCc2cccnc2)ccc1OCC(=O)Nc1cccc(C(F)(F)F)c1	3	-0.33
O=C(C1=NN(c2ccccc2)c2ncccc2S1(=O)=O)N1CCOCC1	2	-0.3
CC1CC2CCCCC2N1Cc1nnc(C2CCC2)o1 (stereo not given)	-9	1.51
CCc1nnc(-c2c(C)c(S(=O)(=O)Nc3ccc(F)c(C)c3)c(C)n2CC)o1	1	-0.14
CCOC(=O)N1CCN(C(=O)c2cnc(C3CC3)nc2C)CC1	-15	2.03
COc1ccc(N2C[C@@H](C(=O)N3CCC(C#N)(N4CCCC4)CC3)CC2=O)cc1	-13	1.28
O=C(NCc1ccc2c(c1)OCO2)c1ccc(-c2cccs2)nc1	-9	1.66
Cc1cnc(CNC(=O)[C@@H](C)Cn2cccn2)cn1	-16	1.43
Cn1cccc1CN1CCC[C@H](C(=O)NCC(F)(F)F)C1	0	-0.04
Cc1cc(NC(=O)c2c(C)noc2C)n(C)n1	-10	1.27
CC1(C)C[C@H](NC(=O)N2CC(CC(F)(F)F)C2)CO1	-4	0.36
CCNC(=O)N(Cc1c(C)nn(-c2ccccc2)c1Oc1ccc(Cl)cc1)CC1CC1	0	-0.05
O=C(Nc1ccc(Cl)cc1)c1ccc2c(=O)n3c(nc2c1)CCCC3	-10	1.51
Cc1cc(N(C)Cc2ccccc2)n2nc(-c3ccccc3C)nc2n1	-13	2.33
Cc1cc(Br)c2c(c1)CCCN2C(=O)c1ncoc1C	15	-1.91
Cc1ccc2nc(NC(=O)c3ccc4c(c3)c(C)c(C)n4Cc3ccccc3)sc2c1	-1	0.2
CCN(C(=O)Nc1c(C)cccc1C)C1COC1	-3	0.51
COCCn1ccc2ccn(Cc3ccc(F)cc3)c(=O)c21	-18	1.55

Structure (SMILES)	% Inhibition [%]	Z score
Cc1cc(C(=O)N(Cc2ccc3c(c2)CCO3)C2CCCC2)on1	-4	0.5
CCOc1ccc(N2C[C@@H](NC(=O)N3CCN(Cc4ccc5c(c4)OCO5)CC3)CC2=O)cc1	18	-2.24
Cc1cnn([C@H]2CCCN(CCNS(=O)(=O)c3ccccc3)C2)c1	-6	0.92
CN1CCN(S(=O)(=O)N2CCN(C(=O)Nc3ccc(C#N)cc3)CC2)CC1	-5	0.81
O[C@H]1CN(Cc2ccccc2C#Cc2ccccc2)CC[C@@H]1N1CCOCC1	0	0
Cc1noc2nc(C3CC3)cc(C(=O)N[C@H]3CCCc4ccccc43)c12	28	-3.12
COc1ccc(OCC(=O)N(C)C)cc1	-6	0.59
CCOC1CC(O)(CNC(=O)Nc2ccncc2C)C1 (stereo not given)	-1	0.15
COc1cccc(-c2cc(-c3cccnc3)nc(N)c2C#N)c1	27	-3.01
COc1nccnc1N(C)Cc1ccc(CN(C)C)cc1	-6	0.83
Cc1ccc([C@H](NC2CCNCC2)c2cccnc2)cc1C	7	-0.96
CCOc1ccc(C[C@@H](CNC(=O)Cc2c[nH]c3c(C)cccc23)C(=O)O)cc1	-9	1.04
N#CCCN(CCC(F)(F)F)C(=O)[C@@H]1COc2ccccc21	-5	0.68
CN(C)C(=O)CCc1cccc(N2Cc3ncccc3C2=O)c1	2	-0.36
O=C(c1ccc(F)c2ccncc12)N(CC1CCCCC1)c1ccccn1	-1	0.14
COc1cc(C)ccc1OCCN1C[C@H](O)[C@@H](F)C1	4	-0.83
CN(C)C(=O)OC[C@H]1CCCCN1C(=O)c1cc(=O)[nH]c(C2CC2)n1	-9	1.51
O=C1NC[C@@H](O)CC12CN(c1ccncc1C(F)(F)F)C2	-3	0.48
CC1c2[nH]c3ccccc3c2C[C@H]2C(=O)N(C3CCCC3)CC(=O)N12 (stereo not given in full)	-7	0.84
O=C(COCc1cc[nH]c(=O)c1)N1CCCCC12CCCCCC2	1	-0.09
CCCCCc1nnc(NC(=O)c2cc(C#N)cn2C)s1	7	-1.24
Cc1cccc(CN2CC[C@@]3(CCCN(C(=O)COc4ccccc4)C3)C2)n1	-3	0.44

Structure (SMILES)	% Inhibition [%]	Z score
Cc1nc(C)c(COc2ccc(OCC(N)=O)cc2)s1	-4	0.61
CN1CCN(C)C(CNC(=O)N2CCCC(C)(c3ccccc3)C2)C1 (stereo not given)	-10	0.94
C[C@@H](CCc1ccccc1)NC(=O)c1cncn1-c1ccc(-c2ccc(F)c(F)c2)cc1	0	-0.07
CC(=O)N1N=C(c2c(C)nc3ccc(Cl)cc3c2-c2ccccc2)C[C@H]1c1ccc(Cl)cc1Cl	-10	1.89
CC(CO)(CO)NC(=O)c1ccccc1F	-44	5.13
O=C(Nc1ccnc2cccnc12)[C@H]1CCCO1	0	-0.05
COc1ccc(-c2c(C)noc2NC(C)=O)cc1S(=O)(=O)N1CCCCCC1	-6	0.92
CC[C@@H](CO)NCc1c(F)cccc1Cl	-14	2.05
CC(C)(NC(=O)c1ccnc2ccnn12)[C@H](O)C(F)(F)F	-2	0.37
Cc1c(C(C)C)c(=O)n(-c2ccc(S(=O)(=O)Nc3ccc4c(c3)n(C)c(=O)n4C)cc2)n1C	-24	2.76
Cc1ccc(CNC(=O)[C@@H](NC(=O)c2ccc(C)cc2)C(C)C)cc1	-15	1.71
CN1CC[C@@H]2CN(C(=O)C3CCc4ccccc4CC3)C[C@@H]21	-7	1.17
CC(C)(CN1CCN(S(=O)(=O)c2ccc(C(N)=O)o2)CC1)c1ccccc1	-7	0.69
O=C1CO[C@H]2CN(c3ncccn3)C[C@H]2N1c1ccccc1	-1	0.17
O=C1Cc2cc(S(=O)(=O)Nc3cc4c(cc3Cl)OCO4)ccc2N1	-2	0.22
c1[nH]nnc1CCN1CCOC[C@@H]1CC1CCOCC1	5	-1.02
COc1ccccc1CCn1ccnc1-c1ccoc1	-2	0.18
Cn1cc(NC(=O)C[C@H]2CCCc3ccccc32)cc1C(N)=O	4	-0.75
COc1nccc2c(NS(=O)(=O)C[C@H](C)OC)cccc12	-7	1.41
